# According to the BET-seq Pho4 binding data (Le et al. 2018):
# This is one part of the list. These are noisy estimates, calculated here from bound and input reads.
# Biological target: T1, Pho4 (S. cerevisiae) (UniProt P07270)
# T1 sequence: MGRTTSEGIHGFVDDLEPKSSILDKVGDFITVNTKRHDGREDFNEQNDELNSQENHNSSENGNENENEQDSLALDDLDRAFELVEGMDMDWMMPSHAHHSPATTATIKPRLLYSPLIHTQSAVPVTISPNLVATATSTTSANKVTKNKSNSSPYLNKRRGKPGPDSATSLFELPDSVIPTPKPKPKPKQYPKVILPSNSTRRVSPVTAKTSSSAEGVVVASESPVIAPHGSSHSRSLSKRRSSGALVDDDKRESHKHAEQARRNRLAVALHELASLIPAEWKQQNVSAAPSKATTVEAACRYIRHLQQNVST
# Assay: relative binding free energy (BET-seq); higher = weaker binding
# Conditions: reference: library average
row,Sequence,relative binding free energy
1,GCTCGCACGTGGGGGT,-0.2 kcal/mol
2,AAAGTCACGTGGGTGC,-0.01 kcal/mol
3,TCGTGCACGTGTGTCA,0.07 kcal/mol
4,CGAATCACGTGAGGGG,0.35 kcal/mol
5,AAAAGCACGTGCTAGT,0.11 kcal/mol
6,TGTGTCACGTGGGAAT,0.09 kcal/mol
7,TGTTTCACGTGAGGCC,0.4 kcal/mol
8,CAATTCACGTGATTGT,0.4 kcal/mol
9,GGCTGCACGTGTGGCT,0.03 kcal/mol
10,TGGTGCACGTGCGTAG,-0.13 kcal/mol
11,TTGCACACGTGGATTG,0.09 kcal/mol
12,CTAAGCACGTGTTGCT,0.14 kcal/mol
13,ACTGTCACGTGGGGCT,-0.15 kcal/mol
14,TTGTCCACGTGTATGT,0.07 kcal/mol
15,TCTGGCACGTGTGGCA,0.06 kcal/mol
16,TTGGGCACGTGATCCG,0.05 kcal/mol
17,CGTAACACGTGATGTG,0.12 kcal/mol
18,TAGTTCACGTGGCATG,0.21 kcal/mol
19,TAGATCACGTGATTAT,0.28 kcal/mol
20,TTGTTCACGTGCATAT,0.24 kcal/mol
21,TGTCTCACGTGTTCTT,0.18 kcal/mol
22,GTTCTCACGTGGGGGT,0.18 kcal/mol
23,AAGTTCACGTGTGCAT,0.24 kcal/mol

row,Sequence,relative binding free energy
1,ATCGGCACGTGCGGGG,-0.16 kcal/mol
2,TACTGCACGTGTAAGG,0.14 kcal/mol
3,GGTTCCACGTGCGGGT,0.18 kcal/mol
4,AGGTTCACGTGGATTT,0.27 kcal/mol
5,TTTTACACGTGCTGTC,0.06 kcal/mol
6,AAAGTCACGTGTAGGT,0.2 kcal/mol
7,TTAAGCACGTGGAAGT,0.01 kcal/mol
8,AGGGTCACGTGTGTCC,0.24 kcal/mol
9,GTGTACACGTGTAGCT,0.07 kcal/mol
10,CTGGTCACGTGAGGTT,0.34 kcal/mol
11,GGGGACACGTGCATGT,-0.01 kcal/mol
12,CGGGTCACGTGGGCGA,-0.29 kcal/mol
13,TGGGGCACGTGTTTAT,0.07 kcal/mol
14,GATATCACGTGGTATA,-0.01 kcal/mol
15,TGGGTCACGTGGGTGC,-0.03 kcal/mol
16,TAATGCACGTGTGTAG,-0.03 kcal/mol
17,TTGTCCACGTGGCGTT,0 kcal/mol
18,GTTAACACGTGTCGGG,0.19 kcal/mol
19,ATAGGCACGTGGGGCC,-0.27 kcal/mol
20,GGGTGCACGTGAGTCT,0.1 kcal/mol
21,TTATTCACGTGCGAAT,0.28 kcal/mol
22,AGTTTCACGTGATTTG,0.3 kcal/mol
23,AGATTCACGTGTCGGG,0.28 kcal/mol

row,Sequence,relative binding free energy
1,GAGTGCACGTGAGTTG,0.23 kcal/mol
2,TGTGTCACGTGATAGA,0.18 kcal/mol
3,ATTAGCACGTGATATG,-0.03 kcal/mol
4,CTATTCACGTGATTTT,0.33 kcal/mol
5,CGTTGCACGTGATTGA,0.12 kcal/mol
6,AGGACCACGTGGTGTT,-0.04 kcal/mol
7,GTTGTCACGTGATTAC,0.38 kcal/mol
8,GTGTACACGTGTGAGG,0.16 kcal/mol
9,TGTTCCACGTGTATGG,0.18 kcal/mol
10,AGTTTCACGTGTCATA,0.22 kcal/mol
11,TTCTTCACGTGTTGAA,0.11 kcal/mol
12,TGGAACACGTGCAGTT,-0.01 kcal/mol
13,GGTGGCACGTGTACTT,0.21 kcal/mol
14,CGCGTCACGTGTCAGT,0.12 kcal/mol
15,ACCGTCACGTGGTGTT,0.07 kcal/mol
16,CGTGTCACGTGAGAAT,0.32 kcal/mol
17,GGAATCACGTGCGGTG,0.07 kcal/mol
18,GTGGACACGTGGGGTA,-0.19 kcal/mol
19,TGCGGCACGTGTCTGG,-0.1 kcal/mol
20,TGGTGCACGTGGCTTT,-0.04 kcal/mol
21,CGTTACACGTGTATAG,0.08 kcal/mol
22,AGTCGCACGTGGCGGA,-0.14 kcal/mol
23,GGCTGCACGTGTTTGA,0.06 kcal/mol

row,Sequence,relative binding free energy
1,TAAGTCACGTGGAAGT,0.07 kcal/mol
2,TACAACACGTGTTTTT,0.13 kcal/mol
3,AGTTGCACGTGTAATT,0.23 kcal/mol
4,CTTTTCACGTGGGGGC,0.13 kcal/mol
5,TGAAGCACGTGTTAGA,-0.14 kcal/mol
6,TATATCACGTGGTCGG,0.13 kcal/mol
7,TACGACACGTGTAGGT,0.18 kcal/mol
8,TAAAACACGTGTTATT,-0.06 kcal/mol
9,AGGTGCACGTGTACTG,-0.17 kcal/mol
10,AAGGCCACGTGTGGGT,0 kcal/mol
11,TTTTTCACGTGGTAAA,0.28 kcal/mol
12,GGAAACACGTGGAGGG,-0.06 kcal/mol
13,GTCGTCACGTGGGTAA,0.03 kcal/mol
14,AGGGCCACGTGGAGGA,-0.2 kcal/mol
15,AAGTTCACGTGCTGAT,0.25 kcal/mol
16,ATTGGCACGTGGCTGT,-0.18 kcal/mol
17,GGTAACACGTGTACGG,0.11 kcal/mol
18,GTATACACGTGTTTGT,0.04 kcal/mol
19,TGGGTCACGTGCACTT,0.11 kcal/mol
20,AGGTGCACGTGGTACG,-0.08 kcal/mol
21,TACGGCACGTGTGTAT,-0.14 kcal/mol
22,CGTTTCACGTGTGCGG,0.16 kcal/mol
23,GCGGACACGTGGGGTA,-0.12 kcal/mol

row,Sequence,relative binding free energy
1,AGAAGCACGTGGGGTT,-0.21 kcal/mol
2,GCGTGCACGTGGGAGG,-0.12 kcal/mol
3,GTGCTCACGTGGTTAA,0.15 kcal/mol
4,ATATTCACGTGTTGCT,0.27 kcal/mol
5,AAGGTCACGTGTATGA,0.04 kcal/mol
6,TCACGCACGTGTGTTG,-0.06 kcal/mol
7,GGATGCACGTGGGGAA,0.01 kcal/mol
8,GGAGGCACGTGAATTA,0.21 kcal/mol
9,ATTGTCACGTGGATTA,0.15 kcal/mol
10,TTATTCACGTGAATGG,0.39 kcal/mol
11,TACGGCACGTGTGGGT,0.05 kcal/mol
12,TCATTCACGTGTGGTC,0.45 kcal/mol
13,AACGGCACGTGTGGAT,0.01 kcal/mol
14,TTGCGCACGTGAAGGA,0.14 kcal/mol
15,GTGCGCACGTGGTAAG,-0.05 kcal/mol
16,GCGGTCACGTGGTGCT,-0.04 kcal/mol
17,CTGGACACGTGATGTG,0.19 kcal/mol
18,GTGATCACGTGGACGG,0.05 kcal/mol
19,TGTGACACGTGTTCGT,0.07 kcal/mol
20,TTTGTCACGTGCAGTA,0.02 kcal/mol
21,TTGTTCACGTGATTTT,0.39 kcal/mol
22,GTTTTCACGTGTTGAT,0.14 kcal/mol
23,TACGGCACGTGGTTTA,-0.09 kcal/mol
